We go through 14 molecules from publication PMC12136788.

The list shows a part of the results.

Sequences and labels used below:
B1: chr13:48512728:48512895:-|CDS|ENSG00000136161|control|control|control (ssRNA)
RNA: GGGAGUUCUACAGUCCGACGAUCCUUUACCUGGGGUCAUAAUGCUUAUAGCCAGCUGGGCAAUGGGACAACUAAUCAUGGUUUAGUGCCCUGUCAUAUCUCUACUAAUCUGUCAAACAAACAAGUCAUUGAAGUUGCCUGUGGCAACAGAGGAUUGAGCAUCA
B2: chr9:88477803:88477904:+|3pUTR|ENSG00000106723|msi1|FALSE|bound_elsewhere (ssRNA)
RNA: GGGAGUUCUACAGUCCGACGAUCGACAAUACAAGACAUGAAUCUAUGUAUAAAAUUUAUCGGCCUUUCUCAUUUACCUGCUCUAGUAUUAUUGUAUUGUGUGUGCGUGCGUGUGUGAUGUCAGGCUGCCACGUAAAACUUCAGCAACAGAGGAUUGAGCAUCA
B3: chr1:114568131:114568247:-|CDS|ENSG00000116752|unk|total|mutant (ssRNA)
RNA: GGGAGUUCUACAGUCCGACGAUCUUCCCGUUGGGUAUCCCUGGUCAGUAAGAAUUAUGAGAUUGAACGGACUAUUGUUCAGCCCGAAAAUGAAAUCUAUCAAAUUAAGCAGCAACAUGGAGAGGCAAACAAAGAAAACAUCCGCAACAGAGGAUUGAGCAUCA
B4: chr3:98799561:98799662:-|CDS|ENSG00000057019|msi1|FALSE|unique (ssRNA)
RNA: GGGAGUUCUACAGUCCGACGAUCUUCAGUUGGUCAGCCCUCCACAUCCACUUUCAAGGCUACGGGGAACCAACCUCCCCCACUAGUGGGAACUUACAAUACACUUCUCUCCAGGACUGACAGCUGCUCCUCAGCCCAGGCCCACAACAGAGGAUUGAGCAUCA
B5: chr12:51291590:51292344:-|CDS|ENSG00000110934|control|control|control (ssRNA)
RNA: GGGAGUUCUACAGUCCGACGAUCUUCACCCACCAGCCCUAGGGCCUCCUUGGGGACUGGGACUGCAAGUCCUAGGACCUCCCUAGAGGUCUCUCCUAAUCCAGAACCACCAGAGAAGCCAGUAAGAACUCCUGAGGCCAAAGACAACAGAGGAUUGAGCAUCA
B6: ENSG00000070961:be:win_3401|CDS|ENSG00000070961|bound_else_gene|NA|bound_elsewhere_windowed (ssRNA)
RNA: GGGAGUUCUACAGUCCGACGAUCAACCGGAAUCAAGAAGUUCGAUUCACAACUUUAUGACACAUCCUGAGUUUAGGAUAGAAGAUUCAGAGCCUCAUAUCCCCCUUAUUGAUGACACUGAUGCCGAAGAUGAUGCUCCUACAACAACAGAGGAUUGAGCAUCA
B7: chr17:57839567:57839672:-|3pUTR|ENSG00000181610|unk|FALSE|unique (ssRNA)
RNA: GGGAGUUCUACAGUCCGACGAUCGGGUUGUCACAAAGCUCAGUAUCAUGGUUUGACAGAAGCAGUUAUGUGAACUUUUAUGUUAGGACAUUACUAAAUAAAGAAUUCCCUAGCUGCUUAUAAAGUAAAUUUACUUUGAAUUGUCAACAGAGGAUUGAGCAUCA
B8: chr6:35869508:35869609:-|CDS|ENSG00000096063|unk|total|mutant (ssRNA)
RNA: GGGAGUUCUACAGUCCGACGAUCGACACCAUGGUGUGCCAGUCUUCCUCAACUGCCGGUCAGUCAUUCAGUGAACAACACAUCCGCCAACUUCAAGAAAGCAUUCGGGCAGAGAUACCCUGUGAAGAUGAACAAGAGCAAGAACAACAGAGGAUUGAGCAUCA
B9: chr19:4839056:4839157:-|3pUTR|ENSG00000105355|msi1|total|mutant (ssRNA)
RNA: GGGAGUUCUACAGUCCGACGAUCUCUAUAAUGCAGCUGUGCUCUGGAGUCCUCAACCCGGGGCUCAUUUCAAACUUAUUUUCCCGCCACUCCUCCCAGCUCUUCUGUGCUGUCCACUUGGGAAGCUAAGGCUCUCAAAACGGGCAACAGAGGAUUGAGCAUCA
B10: chr11:85958428:85958534:-|3pUTR|ENSG00000073921|unk|FALSE|unique (ssRNA)
RNA: GGGAGUUCUACAGUCCGACGAUCAGAAACAAUAACUGAAAUUAACUUUUCUUUUUUUAAAAAAAAUUAUAUUCAGUUUGCAGUAGACAUUCCUUAAGUAUUUGUAUUUAUUUAUGAUUAUCAAUUUUACAUAACAUUAAUAUUCAACAGAGGAUUGAGCAUCA
B11: ENSG00000181852:stop:overlap|stop_codon|ENSG00000181852|stop_codon|NA|stop_codon (ssRNA)
RNA: GGGAGUUCUACAGUCCGACGAUCGUGUCAACCCCAACCUUCAGAACCUGGAGGAGACAAUUGAAUACAACGAGAUCCUAGAGUAGCUUACAACCCAGAGAAGAGGAGGCAGAGUGCAAGUCCAGGAAAGUGAUCUCUAAAAUGCAACAGAGGAUUGAGCAUCA
B12: chr17:44253117:44253371:-|CDS|ENSG00000004939|control|control|control (ssRNA)
RNA: GGGAGUUCUACAGUCCGACGAUCCAAACCUGAGCGCAAGAUGGUCAAGGGCUCCGGCUUCCACCUGGACCUGCUGCUGGUAGUAGGCAUGGGUGGGGUGGCCGCCCUCUUUGGGAUGCCCUGGCUCAGUGCCACCACCGUGCGCAACAGAGGAUUGAGCAUCA
B13: chr4:48498090:48498191:-|3pUTR|ENSG00000075539|msi1|total|mutant (ssRNA)
RNA: GGGAGUUCUACAGUCCGACGAUCAGGAAGCCUGAAGACUGACUACCAAAACAUGCAAUAUACUUAUUCACUGUCUAAGUCUGCCGUAUAACAUGAACUGGAGUCUCUAUCCUUUUCUAAAAUCGCAUUUUGUAAGAAAAGAAACAACAGAGGAUUGAGCAUCA
B14: chr12:46358264:46358384:-|3pUTR|ENSG00000134294|msi1|FALSE|unique (ssRNA)
RNA: GGGAGUUCUACAGUCCGACGAUCAAUGUGAUCUAGUGUAAUGGAAGACCUUUGAGAACCUGGGUGUAUUAACUUUGUGUAUAUAGUGUAAAUAUCCCCACUGUACUGUUAGAGGCCAACAAUUCUAGUAUGGCUUGUUGGCAACAACAGAGGAUUGAGCAUCA

The target in this assay is MSI1 full-length (mouse, UniProt Q61474 1-362). In words: nsRBNS (natural sequence RNA bind-n-seq); RBNS binding buffer (assumed for nsRBNS): 25 mM Tris pH 7.5, 150 mM KCl, 3 mM MgCl2, 0.01% Triton X-100, 500 ug/ml BSA, 20 U/ml SUPERase-In, 4 C; UNK is unkempt and MSI1 is Musashi-1; names of the RNAs are library labels; protein concentration not given here; high values mean tight binding.
Sequence of UniProt Q61474 (Q61474 whole entry): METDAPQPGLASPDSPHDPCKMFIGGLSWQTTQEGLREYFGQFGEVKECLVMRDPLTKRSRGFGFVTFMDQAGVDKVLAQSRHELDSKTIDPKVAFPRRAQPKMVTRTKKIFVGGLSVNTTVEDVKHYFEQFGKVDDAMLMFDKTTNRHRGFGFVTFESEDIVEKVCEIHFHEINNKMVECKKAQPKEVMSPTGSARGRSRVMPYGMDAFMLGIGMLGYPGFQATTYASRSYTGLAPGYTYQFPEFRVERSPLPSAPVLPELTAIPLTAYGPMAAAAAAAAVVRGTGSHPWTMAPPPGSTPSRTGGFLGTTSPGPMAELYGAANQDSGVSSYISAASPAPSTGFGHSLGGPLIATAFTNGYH
On to B1, for which the binding signal worked out at 0.45 enrichment R.

Turning to B2, the binding signal was 0.861 enrichment R.

Molecule B3 returned a binding signal of 0.6 enrichment R. As to B4, the binding signal is 0.51 enrichment R. In turn, B5 yielded a binding signal of 0.477 enrichment R.

Molecule B6 returned a binding signal of 0.458 enrichment R.

B7 gave a binding signal of 0.599 enrichment R. Consider B8, for which the binding signal is 0.355 enrichment R. For B9, the binding signal worked out at 0.586 enrichment R. B10 gave a binding signal of 4.67 enrichment R. The molecule B11 showed a binding signal of 0.586 enrichment R. B12 yielded a binding signal of 0.251 enrichment R. B13 gave a binding signal of 0.265 enrichment R.

With B14, the binding signal was 3.77 enrichment R.
